Measured values taken from the supplement of paper PMC12645437, “Orthogonal IMiD-Degron Pairs Induce Selective Protein Degradation in Cells” (ACS Chemical Biology, 2025).
This is one part of the list.

target: no compound (DMSO); test: log2 fold change of degron read counts, EGFP-low vs EGFP+ sorted cells; higher = lower degron-EGFP level without compound (poor expression or instability); conditions: compound: DMSO control; 18 h
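Note: jurkat cells carrying a lentiviral library of mutant zinc finger degrons fused to EGFP plus mCherry, mCherry+ cells FACS sorted, degron abundance counted by next-generation sequencing.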

| Sequence | log2 fold change of degron read counts |
| --- | --- |
| FGCNVCGACFTQKGNLLRHIKL | 0.0994 |
| FGCPICGRFFTQKGNLLRHIKL | 1.02 |
| FNCNQCGHCFTQKGNLLRHIKL | 0.566 |
| FMCEICGHLFTQKGNLLRHIKL | -1.11 |
| FQCEQCGAGFTQKGNLLRHIKL | -2.84 |
| FWCNQCGHSFTQKGNLLRHIKL | 0.52 |
| FVCDICGAYFTQKGNLLRHIKL | -0.468 |
| FICNQCGANFTQKGNLLRHIKL | -0.881 |
| FGCNQCGAWFTQKGNLLRHIKL | 1.2 |
| FSCPICGAKFTQKGNLLRHIKL | -1.04 |
| LGCEICGFVCTQKGNLLRHIKL | 0.859 |
| FYCPVCGAYFTQKGNLLRHIKL | 1.02 |
| FRCDQCGAQFTQKGNLLRHIKL | -1.05 |
| FYCNQCGRDFTQKGNLLRHIKL | -0.127 |
| FRCPQCGACFTQKGNLLRHIKL | 0.157 |
| LTCPICGFACTQKGNLLRHIKL | 0.412 |

| Sequence | log2 fold change of degron read counts |
| --- | --- |
| LGCPICGFPCTQKGNLLRHIKL | 1.23 |
| FTCNQCGRHFTQKGNLLRHIKL | -0.856 |
| FTCNQCGAYFTQKGNLLRHIKL | 0.0312 |
| FDCDICGAFFTQKGNLLRHIKL | 0.716 |
| FTCNQCGHMFTQKGNLLRHIKL | -0.303 |
| FQCEICGRDFTQKGNLLRHIKL | -0.555 |
| FMCDICGAMFTQKGNLLRHIKL | -0.622 |
| FTCPVCGACFTQKGNLLRHIKL | 0.318 |
| FVCNQCGHAFTQKGNLLRHIKL | -0.763 |
| FCCDICGAYFTQKGNLLRHIKL | -0.245 |
| FGCEVCGANFTQKGNLLRHIKL | -1.73 |
| FGCEICGRAFTQKGNLLRHIKL | -0.827 |
| FICNQCGAMFTQKGNLLRHIKL | -0.042 |
| FKCNQCGARFTQKGNLLRHIKL | -0.732 |
| FYCNQCGHMFTQKGNLLRHIKL | -0.059 |
| FWCPQCGAIFTQKGNLLRHIKL | 2.21 |
